Patent publication US5770563A, “Heparin- and sulfatide binding peptides from the type I repeats of human thrombospondin and conjugates thereof” (The United States of America as represented by the …, priority 1995, dated 1998)
pIC50: −log10 of the molar value. Read-outs that look alike come from different tables or passages of the source. Not every detail of the peptide structures is certain; ends, links or a residue may be inferred. Some entries repeat one wording, which the source may state once for all of them. Square brackets hold non-standard residues; d marks the D form. Peptide text beside a SMILES is read from it. Ava = NCCCCC(=O)O; Mpa = O=C(O)CCS

Legend:
[1] = molecular target: basic fibroblast growth factor (FGF-2) binding to heparin; assay: Inhibition of 125I-bFGF binding to heparin-BSA conjugate; conditions: L-forward peptides; read-out: IC50 Inhibitory Activity
Description: Binding of ^125 I-bFGF to heparin was determined using an immobilized heparin-BSA conjugate as previously described (Guo, et al. (1992) Proc. Nat'l Acad. Sci. 89:3040-3044). ^125 I-bFGF, prepared as described by Neufeld, et al, (1985), J. Biol. Chem. 260:13860-13868, was added described above, and incubated for 2 hours at 25° C. Bound radioactivity was determined after washing and cutting the wells from the plate. FIGS. 40A, B and C show the inhibition of ^125 I-bFGF binding to heparin by a number of TSP peptide analogs.

[2] = molecular target: thrombospondin binding to heparin; assay: Inhibition of 125I-thrombospondin binding to immobilized heparin-BSA; design: species or system human; conditions: for pIC50: free, read-out: IC50 Inhibitory Activity, Free Peptide
Description: The peptides were tested as inhibitors of laminin, thrombospondin or apolipoprotein E binding to a heparin-bovine serum albumen conjugate or to a sulfatide in a solid phase assay essentially following the procedure described in Zabrenetzky et al., Cancer Res., Vol. 50, pages 5937-5942 (1990). Sulfatide (0.2 μg/well for thrombospondin binding, 0.6 μg/well for laminin binding) was immobilized in a mixture of 50 ng of phosphatidyl choline, and 30 ng of cholesterol on polyvinyl chloride microtiter plates. Heparin-BSA (0.2 μg/well) was absorbed onto polyvinyl chloride microtiter plate wells by incubation of 50 μl of Dulbecco's PBS for 2 h at 37°. The wells were emptied and filled with 50 mM tris, pH 7.8 containing 150 mM NaCl, 1 mM CaCl2, 0.025% NaN3, and 1% BSA. After 30 minutes, the wells were emptied and 30 μl of various concentrations of potential inhibitory peptides diluted in the same buffer or buffer alone and 30 μl of ^125 I-labeled laminin, thrombospondin or apolipoprotein E (0.2 μg/ml) were added to each well. After 3 hours at 4°, the wells were washed 6 times with 0.15M NaCl, cut from the plate and the bound radioactivity counted. FIGS. 1A-B and 2A-B show the level of thrombospondin binding to sulfatide and heparin-BSA, respectively, in the presence of increasing concetrations of the peptides listed. FIGS. 3 and 4A-B show the level of laminin binding to sulfatide and heparin-BSA, respectively, in the presence of increasing concentrations of the listed peptides.
Microtiter plate wells were coated with heparin-BSA. Heparin-BSA (0.2 μg/well) was adsorbed by incubation in 50 μl of Dulbecco's PBS for 2 h at 370. The wells were emptied, filled with tris-BSA, and incubated for 30 to 60 minutes. The buffer was removed, and labelled thrombospondin was added and incubated in the wells for 3 h at 40. The wells were emptied and washed 4 times with saline. The bottoms of the wells were cut from the plate and counted to quantify thrombospondin binding. Inhibition of thrombospondin binding was determined using peptides diluted in 30 μl of 50 mM tris buffer, pH 7.8, containing 110 mM NaCl, 1 mM CaCl2, 0.025% NaN3, and 1% BSA or buffer alone and 30 μl of ^125 I-labeled TSP (0.2 μg/ml).

`NCC(=O)NCC(=O)N[C@@H](Cc1c[nH]c2ccccc12)C(=O)N[C@@H](CO)C(=O)N[C@@H](Cc1c[nH]cn1)C(=O)N[C@@H](Cc1c[nH]c2ccccc12)C(=O)O` [GGWSHW] (H-GGWSHW-OH) gave a pIC50 [1] of less than 4.40.

`C[C@H](NC(=O)[C@H](C)NC(=O)[C@H](CCCCN)NC(=O)[C@H](C)NC(=O)[C@H](CCCNC(=N)N)NC(=O)[C@@H](N)CCCCN)C(=O)NCC(=O)NCC(=O)N[C@@H](Cc1c[nH]c2ccccc12)C(=O)N[C@@H](CO)C(=O)N[C@@H](Cc1c[nH]cn1)C(=O)N[C@@H](Cc1c[nH]c2ccccc12)C(=O)N[C@@H](CO)C(=O)N1CCC[C@H]1C(=O)N[C@@H](Cc1c[nH]c2ccccc12)C(=O)N[C@@H](CO)C(=O)N[C@@H](CO)C(=O)N[C@@H](CS)C(=O)O` [KRAKAAGGWSHWSPWSSC] (H-KRAKAAGGWSHWSPWSSC-OH) was tested, and the pIC50 ([2]; L-forward peptides) was 7.52 and the pIC50 [1] was 6.66.

Compound `C[C@H](NC(=O)[C@H](CCCNC(=N)N)NC(=O)[C@@H](N)CCCCN)C(=O)N[C@@H](CCCCN)C(=O)N[C@@H](CCC(N)=O)C(=O)N[C@@H](CC(=O)O)C(=O)NCC(=O)NCC(=O)N[C@@H](Cc1c[nH]c2ccccc12)C(=O)N[C@@H](CO)C(=O)N[C@@H](Cc1c[nH]cn1)C(=O)N[C@@H](Cc1c[nH]c2ccccc12)C(=O)N[C@@H](CO)C(=O)N1CCC[C@H]1C(=O)O` [KRAKQDGGWSHWSP] (H-KRAKQDGGWSHWSP-OH) has a pIC50 ([2]; L-forward peptides) of 6.89.

`C[C@H](NC(=O)[C@H](CCCNC(=N)N)NC(=O)[C@@H](N)CCCCN)C(=O)N[C@@H](CCCCN)C(=O)N[C@@H](CCC(N)=O)C(=O)N[C@@H](CC(=O)O)C(=O)NCCCCC(=O)N[C@@H](Cc1c[nH]c2ccccc12)C(=O)N[C@@H](CO)C(=O)N[C@@H](Cc1c[nH]cn1)C(=O)N[C@@H](Cc1c[nH]c2ccccc12)C(=O)N[C@@H](CO)C(=O)N1CCC[C@H]1C(=O)O` [KRAKQDUWSHWSP] (H-KRAKQD[Ava]WSHWSP-OH) was tested, and the pIC50 ([2]; L-forward peptides) was 6.49 and the pIC50 [1] was 5.82.

`N=C(N)NCCC[C@H](NC(=O)[C@@H](N)CCCCN)C(=O)N[C@@H](Cc1ccccc1)C(=O)N[C@@H](CCCCN)C(=O)N[C@@H](CC(=O)O)C(=O)N[C@@H](CC(=O)O)C(=O)NCC(=O)NCC(=O)N[C@@H](Cc1c[nH]c2ccccc12)C(=O)N[C@@H](CO)C(=O)N[C@@H](Cc1c[nH]cn1)C(=O)N[C@@H](Cc1c[nH]c2ccccc12)C(=O)N[C@@H](CO)C(=O)N1CCC[C@H]1C(=O)N[C@@H](Cc1c[nH]c2ccccc12)C(=O)N[C@@H](CO)C(=O)N[C@@H](CO)C(=O)N[C@@H](CS)C(=O)O` [KRFKDDGGWSHWSPWSSC] (H-KRFKDDGGWSHWSPWSSC-OH) was tested, and the pIC50 [1] was 5.42.

`C[C@H](NC(=O)[C@H](CCC(N)=O)NC(=O)[C@H](CCCCN)NC(=O)[C@H](Cc1ccccc1)NC(=O)[C@H](CCCNC(=N)N)NC(=O)[C@@H](N)CCCCN)C(=O)NCC(=O)NCC(=O)N[C@@H](Cc1c[nH]c2ccccc12)C(=O)N[C@@H](CO)C(=O)N[C@@H](Cc1c[nH]cn1)C(=O)N[C@@H](Cc1c[nH]c2ccccc12)C(=O)N[C@@H](CO)C(=O)N1CCC[C@H]1C(=O)N[C@@H](Cc1c[nH]c2ccccc12)C(=O)O` [KRFKQAGGWSHWSPW] (H-KRFKQAGGWSHWSPW-OH) showed a pIC50 [1] of 6.35.

Compound `N=C(N)NCCC[C@H](NC(=O)[C@@H](N)CCCCN)C(=O)N[C@@H](Cc1ccccc1)C(=O)N[C@@H](CCCCN)C(=O)N[C@@H](CCC(N)=O)C(=O)N[C@@H](CC(=O)O)C(=O)NCC(=O)NCC(=O)N[C@@H](Cc1c[nH]c2ccccc12)C(=O)N[C@@H](CO)C(=O)N[C@@H](Cc1c[nH]cn1)C(=O)N[C@@H](Cc1c[nH]c2ccccc12)C(=O)O` [KRFKQDGGWSHW] (H-KRFKQDGGWSHW-OH) has a pIC50 [1] of 5.60.

With `N[C@@H](CO)C(=O)N[C@@H](Cc1c[nH]cn1)C(=O)N[C@@H](Cc1c[nH]c2ccccc12)C(=O)N[C@@H](CO)C(=O)N[C@@H](CO)C(=O)O` [Peptide 257, SHWSS] (H-SHWSS-OH) the “inhibition of thrombospondin binding to heparin, in words” value (“inhibition of thrombospondin binding” for short) ([2]; free peptide) was “decreased activity”.

For `C[C@H](NC(=O)[C@H](Cc1c[nH]cn1)NC(=O)[C@H](CO)NC(=O)[C@H](Cc1c[nH]c2ccccc12)NC(=O)CNC(=O)CN)C(=O)N[C@@H](CO)C(=O)N1CCC[C@H]1C(=O)N[C@@H](Cc1c[nH]c2ccccc12)C(=O)N[C@@H](CO)C(=O)N[C@@H](CO)C(=O)O` [Peptide 259, GGWSHASPWSS] (H-GGWSHASPWSS-OH), the “inhibition of thrombospondin binding” value ([2]; free peptide) was “abolished activity”.

In the case of `N[C@@H](CO)C(=O)N[C@@H](Cc1c[nH]cn1)C(=O)N[C@@H](Cc1c[nH]c2ccccc12)C(=O)N[C@@H](CO)C(=O)N[C@@H](CO)C(=O)N1CCC[C@H]1C(=O)N[C@@H](Cc1c[nH]c2ccccc12)C(=O)N[C@@H](CO)C(=O)N[C@@H](CO)C(=O)O` [Peptide 260, SHWSSPWSS] (H-SHWSSPWSS-OH), the “inhibition of thrombospondin binding” value ([2]; free peptide) was “abolished activity”.

For `C[C@H](NC(=O)[C@H](Cc1c[nH]c2ccccc12)NC(=O)[C@H](Cc1c[nH]cn1)NC(=O)[C@@H](N)CO)C(=O)N1CCC[C@H]1C(=O)N[C@@H](Cc1c[nH]c2ccccc12)C(=O)N[C@@H](CO)C(=O)N[C@@H](CO)C(=O)O` [Peptide 261, SHWAPWSS] (H-SHWAPWSS-OH), the “inhibition of thrombospondin binding” value ([2]; free peptide) was “loss of activity”.

For `C[C@H](NC(=O)CNC(=O)CNC(=O)[C@H](CC(=O)O)NC(=O)[C@H](CCC(N)=O)NC(=O)[C@H](CCCCN)NC(=O)[C@H](Cc1ccccc1)NC(=O)[C@H](CCCNC(=N)N)NC(=O)[C@@H](N)CCCCN)C(=O)N[C@@H](CO)C(=O)N[C@@H](Cc1c[nH]cn1)C(=O)N[C@@H](C)C(=O)N[C@@H](CO)C(=O)N1CCC[C@H]1C(=O)N[C@@H](C)C(=O)N[C@@H](CO)C(=O)N[C@@H](CO)C(=O)N[C@@H](CS)C(=O)O` [Peptide 389, KRFKQDGGASHASPASSC] (H-KRFKQDGGASHASPASSC-OH), the “inhibition of thrombospondin binding” value ([2]; FICOLL conjugate) was “inactive” and the pIC50 [1] was less than 4.40.

In the case of `N=C(N)NCCC[C@H](NC(=O)[C@@H](N)CCCCN)C(=O)N[C@@H](Cc1ccccc1)C(=O)N[C@@H](CCCCN)C(=O)N[C@@H](CCC(N)=O)C(=O)N[C@@H](CC(=O)O)C(=O)NCC(=O)NCC(=O)O` [Peptide 401, KRFKQDGG] (H-KRFKQDGG-OH), the “inhibition of thrombospondin binding” value ([2]; free peptide) was “lack of activity” and the pIC50 [1] was less than 4.40.

For `N=C(N)NCCC[C@H](NC(=O)[C@@H](N)CCCCN)C(=O)N[C@@H](Cc1ccccc1)C(=O)N[C@@H](CCCCN)C(=O)O` [Peptide 402, KRFK] (H-KRFK-OH), the “inhibition of thrombospondin binding” value ([2]; free peptide) was “lack of activity”.

In the case of `C[C@H](NC(=O)[C@H](CCCNC(=N)N)NC(=O)[C@@H](N)CCCCN)C(=O)N[C@@H](CCCCN)C(=O)O` [Peptide 408, KRAK] (H-KRAK-OH), the “inhibition of thrombospondin binding” value ([2]; free peptide) was “lack of activity”.

`C[C@@H](NC(=O)CCS)C(=O)N[C@H](C)C(=O)N[C@H](Cc1c[nH]c2ccccc12)C(=O)N1CCC[C@@H]1C(=O)N[C@H](CO)C(=O)N[C@H](Cc1c[nH]c2ccccc12)C(=O)N[C@H](Cc1c[nH]cn1)C(=O)N[C@H](CO)C(=O)N[C@H](Cc1c[nH]c2ccccc12)C(=O)NCC(=O)NCC(N)=O` [Peptide 493, ri-amGGWSHWSPWAAtp] ([Mpa][dA][dA][dW][dP][dS][dW][dH][dS][dW]GG-NH2) showed a pIC50 ([2]; retro-inverso peptides) of less than 4.70.

Compound `N[C@@H](CO)C(=O)N[C@@H](Cc1c[nH]cn1)C(=O)N[C@@H](Cc1c[nH]c2ccccc12)C(=O)N[C@@H](CO)C(=O)N1CCC[C@H]1C(=O)N[C@@H](Cc1c[nH]c2ccccc12)C(=O)N[C@@H](CO)C(=O)N[C@@H](CO)C(=O)N[C@@H](CS)C(=O)O` [SHWSPWSSC] (H-SHWSPWSSC-OH) has a pIC50 [1] of less than 4.40.

In the case of `CC[C@H](C)[C@H](NC(=O)[C@H](CCCNC(=N)N)NC(=O)[C@@H](N)[C@@H](C)O)C(=O)N[C@@H](CCCNC(=N)N)C(=O)N[C@@H](CCC(N)=O)C(=O)N[C@@H](CC(=O)O)C(=O)NCC(=O)NCC(=O)N[C@@H](Cc1c[nH]c2ccccc12)C(=O)N[C@@H](CO)C(=O)N[C@@H](Cc1c[nH]cn1)C(=O)N[C@@H](Cc1c[nH]c2ccccc12)C(=O)O` [TRIRQDGGWSHW] (H-TRIRQDGGWSHW-OH), the pIC50 [1] was 4.89.
